PubChem BioAssay AID485294 (National Center for Advancing Translational Sciences (NCATS), 2010)
About 150 (0.041%) of roughly 370,000 compounds were called active. Inconclusive means that the source gave no clear call. Such entries were picked first, then a sample of the others. The call rests on the fitted dose curve; in most records, active means well fitted inhibition curve with a large enough effect; inconclusive means small, poorly fitted or top-dose-only effect; inactive means flat fitted curve, though single readings scatter. No potency is given beside an inconclusive call; the fits are too rough.

target: Beta-lactamase (Escherichia coli (strain K12)) (UniProt P00811); test: qHTS Inhibitors of AmpC Beta-Lactamase (assay with detergent); conditions: AmpC hydrolysis of nitrocefin, absorbance 480 nm, 0.01% Triton; series mostly up to 114 µM; further: nearly all actives have a fitted effect of over 25% in size
Method in brief: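 AmpC (5.3 nM in the dispensed reagent) in 20 mM phosphate pH 7.0 with 0.01% (detergent screen) or 0.0001% Triton X-100 was preincubated with compounds for 15 min at room temperature. Nitrocefin was then added from an 800 uM solution, and hydrolysis was followed at 480 nm.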
Potency means the concentration at half of the fitted maximal effect; tags describe the fitted curve by direction and shape.

UniProt P00811, sequence (P00811 whole entry, looked up): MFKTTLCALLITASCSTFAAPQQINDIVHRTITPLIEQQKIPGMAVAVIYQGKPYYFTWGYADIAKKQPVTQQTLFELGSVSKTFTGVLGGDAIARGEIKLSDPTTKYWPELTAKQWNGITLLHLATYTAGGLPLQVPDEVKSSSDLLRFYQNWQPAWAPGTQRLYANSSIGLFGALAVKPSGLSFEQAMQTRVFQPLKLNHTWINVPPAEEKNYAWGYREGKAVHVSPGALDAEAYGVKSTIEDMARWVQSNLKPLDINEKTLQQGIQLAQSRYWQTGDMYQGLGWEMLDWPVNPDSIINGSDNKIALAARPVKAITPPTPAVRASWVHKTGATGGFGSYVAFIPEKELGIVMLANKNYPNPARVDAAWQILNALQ

Structure (SMILES) | Potency
CCCCNC(=O)CSc1nc2ccsc2c(=O)n1C1CCN(C(=O)OCC)CC1 | inactive
Cc1cccc(C(=O)n2nc(C)c(S(=O)(=O)N3CCOCC3)c2C)c1 | inactive
CCOc1c(OC(C)=O)ccc(/C=C/c2ccc3cccc(OC)c3n2)c1[N+](=O)[O-] | inconclusive [inhibitor, full curve]
COc1ccc2c(c1OC)C(=O)N(c1cccc(C)c1)C2=O | inactive
COc1ccc(NS(=O)(=O)c2ccc(NC(=S)NC(=O)/C=C/c3ccc(C)cc3)cc2)nn1 | inconclusive [inhibitor, full curve, poor fit]
Cc1ccc(C(=O)CSC2=C(C#N)C(c3ccco3)CC(=O)N2)c(C)c1 (stereo not given) | inconclusive [inhibitor, partial curve, poor fit]
CC1(C)Cc2c(C#N)c(NCCN3CCOCC3)nc(-c3ccco3)c2CO1 | inconclusive [inhibitor, full curve, poor fit]
CCC1CCCCN1CCCNC(=O)CCNC(=O)Cn1cnc2ccccc2c1=O (stereo not given) | inconclusive [inhibitor, full curve]
COc1ccc(-c2cc(C(=O)Nc3ccccc3F)on2)cc1 | inactive
CC(CN1CCN(C/C=C/c2ccccc2)CC1)c1ccccc1 (stereo not given) | inconclusive [inhibitor, full curve, poor fit]
CC1Cc2cc(S(=O)(=O)CCC(=O)Nc3ccccc3F)ccc2N1C(=O)C1CC1 (stereo not given) | inactive
O=C(CCN1CCCC1)c1cccs1 | inactive
Cc1cc2nc(C)c(=O)n(C)c2cc1C | inconclusive [inhibitor, partial curve]
Cc1cc(C)n(-c2ccc(C(=O)C(C#N)c3nc4ccccc4n3C)cc2)n1 (stereo not given) | inconclusive [inhibitor, full curve]
COc1ccc(OCc2nn3c(-c4ccco4)nnc3s2)cc1 | inconclusive [inhibitor, single point]
Cc1ccc(-c2ccccc2)n1-c1cccc(C(=O)O)c1 | inactive
Cc1ccccc1NS(=O)(=O)c1ccc(F)cc1 | inconclusive [inhibitor, single point]
CC(C)c1ccc(OCC(=O)NC(=S)Nc2ccc3c4c(cccc24)CC3)cc1 | inconclusive [inhibitor, single point]
COc1ccccc1/C=C/C=N/n1c(-c2n[nH]c3c2CCC3)n[nH]c1=S | inactive
O=c1oc(Nc2ccc(F)cc2)nc2ccccc12 | inactive
CC(=O)N1N=C2C3CCN(CC3)C2C1c1cccc2ccccc12 (stereo not given) | inconclusive [inhibitor, full curve, poor fit]
O=C(NN=C1CCCCCC1)c1cccs1 | inconclusive [inhibitor, full curve]
CCCOc1c(OC)cccc1C1CC(=O)Nc2cc3c(cc21)OCCO3 (stereo not given) | inactive
O=C(COc1nncc2ccccc12)Nc1c(F)c(F)c(F)c(F)c1F | inconclusive [inhibitor, partial curve, poor fit]

Structure (SMILES) | Potency
CC[N+]1(CC)CC2CCC(C)(C1)C2(C)C (stereo not given) | inconclusive [inhibitor, single point]
Cc1cnc(C(=O)OC(C)C(=O)Nc2ccc3c(c2)OCCO3)cn1 (stereo not given) | inconclusive [inhibitor, full curve, poor fit]
CC1(C)CC(=O)C2=C(C1)N(c1ccc(F)cc1)C(N)=C(C#N)C2c1cccs1 (stereo not given) | inconclusive [inhibitor, partial curve, poor fit]
O=C(Nc1cccc(Cl)c1)N1CC2CCCN2c2ccccc21 (stereo not given) | inactive
c1ccc(OCCOCCSc2ncccn2)cc1 | inactive
CC1CC(C)(C)N(C(=O)CN2CCN(C)CC2)c2ccccc21 (stereo not given) | inconclusive [inhibitor, partial curve]
O=C(CCCc1nc(-c2ccccc2Cl)no1)N1CCOCC1 | inconclusive [inhibitor, full curve, poor fit]
CC(=O)c1ccc(NC(=O)c2cc(Cl)sc2Cl)cc1 | inconclusive [inhibitor, partial curve, poor fit]
CC(C)=CCCC(C)CN1CCC(O)CC1 (stereo not given) | inconclusive [inhibitor, full curve, poor fit]
CCOc1ccccc1NC(=O)c1c2c(nc3ccccc13)C(=O)N(C1CCCCC1)C2 | inactive
O=C(NCC(=O)N1CC(O)CC1C(=O)N1CC(O)CC1C(=O)OCc1ccccc1)OCc1ccccc1 (stereo not given) | inactive
CC1(C)CC(=O)C(CC(=O)NC(=O)NCc2ccccc2)=C(O)C1 | inconclusive [inhibitor, full curve, poor fit]
COc1ccc(NC(=O)/C=C/c2ccc(C)o2)cc1S(=O)(=O)N1CCOCC1 | inconclusive [inhibitor, partial curve, poor fit]
CCC(NS(=O)(=O)c1ccc(C)cc1)C(=O)N1CCOCCOCCOCCOCC1 (stereo not given) | inconclusive [inhibitor, single point]
Cn1c(=O)c2ncn(CC(=O)NC3CCCCCC3)c2n(C)c1=O | inconclusive [inhibitor, single point]
COC(=O)c1ccc(NCC(=O)Nc2cc(C)cc(C)c2)cc1 | inactive
CC1CCN(S(=O)(=O)c2ccccc2)CC1 | inconclusive [inhibitor, full curve, poor fit]
CN(CC(=O)NC(=O)NC1CCCCC1)Cc1ccccc1 | inactive
Cc1[nH]c(C)c(S(=O)(=O)Nc2cccc(Cl)c2C)c1C(=O)N1CCCCC1 | inconclusive [inhibitor, full curve, poor fit]
CC1CN(C2CCN(S(=O)(=O)c3ccc4ccccc4c3)CC2)CC(C)O1 (stereo not given) | inconclusive [inhibitor, single point]
Cc1ccc(C(C)C)c(Oc2nnnn2-c2ccccc2)c1 | inconclusive [inhibitor, full curve]
CCCCOc1ccc(C(=O)NN2C(=O)NC3(CCCCC3)C2=O)cc1OC | inconclusive [inhibitor, full curve, poor fit]
COc1ccc(CNC(=O)C2COc3ccccc3O2)cc1 (stereo not given) | inconclusive [inhibitor, full curve, poor fit]
CCCC(O)(CCN1CCOCC1)c1ccc(Cl)cc1 (stereo not given) | inconclusive [inhibitor, single point]

Structure (SMILES) | Potency
O=C(Cn1c(=O)c(=O)n(Cc2ccccc2)c2ccc(Cl)cc21)Nc1cc(F)ccc1F | inconclusive [inhibitor, full curve]
CCc1ccc(C(=O)COC(=O)CNC(=O)Cc2ccccc2)cc1 | inconclusive [inhibitor, single point]
CCOC(=O)C1CCN(Cc2cccc(OCc3ccccc3)c2)CC1 | inconclusive [inhibitor, partial curve, poor fit]
C=CC(C)(O)CCC=C(C)C (stereo not given) | inconclusive [inhibitor, partial curve]
Cc1c(C(=O)OC(C)C)[nH]c2c1C(=O)CCC2 | inconclusive [inhibitor, full curve]
Fc1cccc(CNc2ncnc3ccc(-c4ccoc4)cc23)c1 | inconclusive [inhibitor, full curve]
CCc1cccc2c(C(=O)COC(=O)c3nccnc3N)c[nH]c12 | inconclusive [inhibitor, partial curve, poor fit]
O=C(Nc1ccc(N2CCCC(O)C2)cc1)c1snc2c(=O)[nH]cnc12 (stereo not given) | inconclusive [inhibitor, single point]
COc1ccc(CNC(=O)C2CCCN(S(=O)(=O)c3ccc4c(ccn4C)c3)C2)c(OC)c1 (stereo not given) | inactive
Cn1ccnc1C(=O)c1ccc(NN)c([N+](=O)[O-])c1 | inconclusive [inhibitor, full curve]
Cc1ccc2c(=O)cc(C(=O)NCc3ccccc3)oc2c1 | inactive
CCCc1ccc2oc(C(=O)N3CCN(CC(=O)NC(C)C)CC3)c(C)c2c1 | inactive
CCc1cc(=O)oc2cc(C)cc(OC(=O)c3ccco3)c12 | inconclusive [inhibitor, full curve, poor fit]
COc1ccc(S(=O)(=O)Nc2ccccc2Cl)cc1NC(C)=O | inactive
CCOc1cccc(C2C(C(=O)c3ccco3)=C(O)C(=O)N2c2nnc(C)s2)c1 (stereo not given) | inactive
CCN(CC)C(=O)C1CCCN(Cc2ccc(OC)c(C)c2C)C1 (stereo not given) | inconclusive [inhibitor, partial curve]
Cc1ccc(-n2nc3c(n2)/C(=N/O)CC/C3=N\O)cc1 | inactive
Cc1ccc(C(=O)/C=C/Nc2cccc([N+](=O)[O-])c2)o1 | inconclusive [inhibitor, partial curve]
COc1ccc(NC(=O)Nc2c(C)n(C)n(-c3ccccc3)c2=O)cc1OC | inconclusive [inhibitor, full curve, poor fit]
Cc1cccc(C(=O)Oc2ccc(/C=N/NC(=O)c3cc(O)cc(O)c3)cc2)c1 | inconclusive [inhibitor, full curve]
O=C(NCc1ccccc1Cl)c1cccc(NC2=NC3CS(=O)(=O)CC3S2)c1 (stereo not given) | inconclusive [inhibitor, single point]
N#Cc1nc(-c2ccco2)oc1N1CCN(C(c2ccccc2)c2ccccc2)CC1 | inconclusive [inhibitor, full curve, poor fit]
